# PubChem BioAssay AID686971 (National Center for Advancing Translational Sciences (NCATS), 2013)
# Among all 360,000 compounds or so, about 7,500 (2.1%) were called active. Inconclusive means that the source gave no clear call. Such entries were picked first, then a sample of the others. The call rests on the fitted dose curve; in most records, active means well fitted cell-killing curve with a large enough effect; inconclusive means small, poorly fitted or top-dose-only effect, or effect the other way, or another doubt; inactive means no such curve, though single readings can be large or run the other way. Potencies of inconclusive entries are left out as doubtful fits.
# Assay: qHTS for induction of synthetic lethality in tumor cells producing 2HG: qHTS for the HT-1080-IDH1KD cell line;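 on activity, negative = toxicity: 0% = DMSO wells and -100% = cell-free medium wells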
# Conditions: HT-1080 IDH1 knockdown viability, ATP luminescence, 48 h; activity, negative = toxicity: at 46.1 µM (top of the series) unless noted
# Method in brief: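 % activity derives from luminescence (CellTiter-Glo), normalised to DMSO and no-cell wells. HT-1080-IDH1KD cells, 750/well, had 48 h compound exposure at 37 °C.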
# Potency means the concentration at half of the fitted maximal effect; tags describe the fitted curve by direction and shape.
SMILES,Potency,"activity, negative = toxicity"
COc1ccc(C(=O)/C=C/c2cccnc2)c(OC)c1,"inconclusive [cytotoxic, single point]",
N=c1c2c(ncn1Cc1ccco1)Oc1c(ccc3ccccc13)C2c1ccccc1 (stereo unspecified),"inconclusive [cytotoxic, single point]",
COC(=O)C1CSC2c3ccccc3C(=O)N12 (stereo unspecified),,inactive: -5.94%
CCc1nc2nc(C)c(NS(=O)(=O)c3ccc(C)c(C)c3)c(=O)n2[nH]1,,inactive: 10.8%
COc1ccc(-c2nn(CCC#N)cc2/C=N/O)cc1,"inconclusive [rising, partial curve, poor fit]",
CCCC(O)(CCC)C(=O)NNc1ccc(C)cc1,"inconclusive [cytotoxic, partial curve]",
COc1ccc(-c2nc(NC(C)=O)sc2-c2ccccc2)cc1,"inconclusive [cytotoxic, partial curve]",
COc1ccc(/C=N/NC(=O)c2cccc(COCC(F)(F)C(F)F)c2)cc1,"inconclusive [cytotoxic, partial curve]",
C/C(=N\N=C(N)N)c1ccc(Cl)c(Cl)c1,active: 18.4 µM,
Cc1ccc(-c2ccc(CN3C(C(C)C)C(=O)N(Cc4cn(CCC5OCCO5)nn4)CCS3(=O)=O)cc2)cc1 (stereo unspecified),"inconclusive [cytotoxic, partial curve]",
COc1ccc(NC(C)=O)cc1CNC(=O)COc1ccccc1C(=O)Nc1cccc(C)c1C,,inactive: 7.38%
O=C(NC(=S)NC1C2CC3CC(C2)CC1C3)c1ccccc1 (stereo unspecified),"inconclusive [cytotoxic, single point]",
C/C(CCC1CC(C)OC1=O)=N/Nc1nc(-c2ccccc2)cs1 (stereo unspecified),"inconclusive [cytotoxic, single point]",
Cn1cc(-c2csc(C(O)c3ccc(F)c(F)c3)n2)cn1 (stereo unspecified),,inactive: 14.9%
CC(C)Oc1ccccc1C1CC(=O)Nc2cc3c(cc21)OCCO3 (stereo unspecified),active: 0.708 µM,
CCOC(=O)c1ccc(-c2c(-c3cc(OC)c(OC)c(OC)c3)noc2C)cc1F,active: 1.84 µM,
Cc1ccccc1N/C(SCc1ccc(Cl)cc1)=C(/C#N)C(N)=O,"inconclusive [cytotoxic, single point]",
CCC1C(=O)N=C(SCC(=O)Nc2nc3ccccc3s2)NC1=O (stereo unspecified),,inactive: -6.31%
CC(Nc1cc(=O)n(C)c(=O)[nH]1)c1ccccc1 (stereo unspecified),,inactive: -0.307%
Nc1ncc(-c2ccccc2)c(-c2ccc(O)cc2O)n1,"inconclusive [cytotoxic, partial curve]",
Cc1cc(NC(=O)COC(=O)CCNS(=O)(=O)c2cccc(C(F)(F)F)c2)no1,,inconclusive: 30.1%
